Measured values from the supplement of paper PMC11417369.
± gives the standard deviation of the averaged measurements. This is one part of the list.

These sequences were tested on PfAP2-I AP2 domain 3 (GST-tagged) (assay: gcPBM binding intensity (ln(normalized median fluorescence intensity)); higher = stronger DNA binding).
Summary of the method: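 Binding of GST-tagged P. falciparum DNA-binding domains, expressed in E. coli and used at about 25 μg on average, was carried out for 1 h in 1× PBS containing 1% milk, 0.2 mg/ml BSA, 0.5% salmon testes DNA and 0.03% Triton X-100. The target was an Agilent 4 × 180k array of primer-extended double-stranded 36-bp intergenic genomic probes plus negative controls, read with Alexa488 anti-GST antibody at 488 nm. Binding intensity is the highest Masliner-normalised natural-log median intensity across replicate spots of either probe orientation.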

Sequence | gcPBM binding intensity (ln)
CTATTAATGTACTCTACACACATATAAGAGGACATT [CACACA_site471] | 8.14 ± 0.12
TGATTATAGACACGCGCACACACAACAAAAAAAAAA [CACACA_site9179] | 8.45 ± 0.36
TAAGTTTGTGCAAGTGGTACATATATATAAATTTAT [XGTACX_site5944] | 8.32 ± 0.59
TGGATTTTTTGATTTTTGTTTTTCTTCTTTCCCCCC [CACACA_negctrl_site1471] | 8.93 ± 0.25
TTTACATAAACTGGTAGTACATAATATGGCTTAAAA [XGTACX_site5002] | 7.99 ± 0.45
TTAGCAACTATTACTACACACATTTGTATTTAATTT [CACACA_site4961] | 7.79 ± 0.68
TAAAATATATTTTTCTGTACACAAAAATATATTAAA [XGTACX_site2813] | 7.96 ± 0.17
TATATATTAATATATGCATGTTAATATATTATGAAA [TGCATGCA_site61] | 7.9 ± 0.75
ACAGTATAAAAATAAGCACACACACTAATATATATT [CACACA_site8212] | 8.19 ± 0.37
ACGATGTTCATCACTACACACACAAAGAAATATATA [CACACA_site8859] | 7.8 ± 0.47
AACCAAAATTTTTGTCGTACAAAAGAGCAAATGTAG [XGTACX_site6472] | 8.57 ± 0.25
TTTTACTATGATATTTATATATCTATATATGTATAT [XGTACX_negctrl_site499] | 7.31 ± 0.52
TATAATATTATAGTTTGTACGAAAATAATATATTTA [XGTACX_site8673] | 7.72 ± 0.37
AAAAATAAAAATGAGTGTACTTTAAGCCCTACACTT [XGTACX_site828] | 7.71 ± 0.49
ATAACAAAATAAAACACACACACAAATGTACCTATA [CACACA_site7190] | 7.88 ± 0.45
TAAAGGCAAACAAACACACACACATATATACCTATA [CACACA_site7078] | 7.79 ± 0.45
TATTTATAAATATAAACACACAACATTATATGCATA [CACACA_site5748] | 7.7 ± 0.45
AAAAGTGTATGTAGGTGTACTTTTTATTTCTTCTTT [XGTACX_site8819] | 7.94 ± 0.38
GATACAAAATGGGGAACACACACATATATATATATA [CACACA_site9278] | 9.29 ± 0.19
TATATATATATATAATGTACGAATAGAAAAAAAAAA [XGTACX_site7231] | 9.38 ± 0.15
CAAAATTTATATAATAGTACACATGATCTTTTTTCT [XGTACX_site8956] | 7.62 ± 0.47
TATATATATATATATATATATATTAATATATATTAC [XGTACX_negctrl_site103] | 9.1 ± 0.32
AAATTAATAAATATTTTTATAAATTATAATATTAAT [GTGCAC_negctrl_site533] | 7.25 ± 0.22
TTTTTTTTTTTTTAATGTACCCATGGGCACATAGGT [XGTACX_site486] | 8.26 ± 0.29
